The whole screen tested about 270,000 compounds, of which about 5,800 (2.1%) were called active. The shares of active, inactive and inconclusive entries below differ from those in the screen. The call rests on the fitted dose curve; in most records, active means well fitted inhibition curve with a large enough effect; inconclusive means small, poorly fitted or top-dose-only effect; inactive means flat fitted curve, though single readings scatter. A potency beside an inconclusive call is a rough fit, not a confirmed value.
These compounds were tested against Microtubule-associated protein tau (Homo sapiens) (UniProt P10636) (assay: qHTS for Inhibitors of Tau Fibril Formation, Thioflavin T Binding). Conditions: recombinant tau K18 P301L, heparin-induced fibrillization, ThT fluorescence; series mostly up to 57.4 µM.
Sequence of UniProt P10636 (P10636 whole entry, looked up): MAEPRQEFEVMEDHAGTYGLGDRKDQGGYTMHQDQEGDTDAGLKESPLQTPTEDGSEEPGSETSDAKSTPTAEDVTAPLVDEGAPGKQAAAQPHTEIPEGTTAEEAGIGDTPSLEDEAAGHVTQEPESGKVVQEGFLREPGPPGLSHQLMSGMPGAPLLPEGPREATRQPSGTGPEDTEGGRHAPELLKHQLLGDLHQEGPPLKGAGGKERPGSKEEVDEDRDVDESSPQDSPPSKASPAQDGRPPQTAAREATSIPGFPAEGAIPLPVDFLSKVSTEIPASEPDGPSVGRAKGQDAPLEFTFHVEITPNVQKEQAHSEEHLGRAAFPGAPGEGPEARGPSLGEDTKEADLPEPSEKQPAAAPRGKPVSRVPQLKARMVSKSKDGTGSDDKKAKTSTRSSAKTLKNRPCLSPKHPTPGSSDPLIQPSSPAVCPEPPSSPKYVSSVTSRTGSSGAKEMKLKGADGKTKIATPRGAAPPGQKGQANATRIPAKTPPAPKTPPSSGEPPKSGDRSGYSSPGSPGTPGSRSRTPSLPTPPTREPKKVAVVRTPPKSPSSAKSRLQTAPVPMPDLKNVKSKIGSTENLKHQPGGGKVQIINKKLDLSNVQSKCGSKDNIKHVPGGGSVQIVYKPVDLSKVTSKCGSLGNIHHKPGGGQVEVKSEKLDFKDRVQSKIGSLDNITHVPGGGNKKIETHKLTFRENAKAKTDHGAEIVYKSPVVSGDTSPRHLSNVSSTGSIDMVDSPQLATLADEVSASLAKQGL
Summary of the method: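 ThT emission at 510 nm, taken 1 hr after adding 30 uM dye, quantifies aggregates formed when 20 uM heparin acts on human tau K18 P301L for 6 hr at 37 C.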
Further: nearly all actives have a fitted effect of over 55% in size.
Potency means the concentration at half of the fitted maximal effect; tags describe the fitted curve by direction and shape.

| SMILES | Potency |
| --- | --- |
| COC(=O)c1ccc(COc2cc([N+](=O)[O-])cc3cccnc23)cc1 | inconclusive: 1.78 µM [inhibitor, full curve] |
| Cc1c(CC(=O)NCc2ccccc2Cl)c(=O)oc2cc(O)ccc12 | inconclusive: 6.31 µM [inhibitor, full curve] |
| Cc1ccc(C(C)C)cc1NC(=O)Nc1ccc([N+](=O)[O-])cc1 | inconclusive: 35.5 µM [inhibitor, single point] |
| COc1cc2c3nnc(-c4ccccc4)c-3cn(Cc3ccc(F)cc3)c2cc1OC | inconclusive: 22.4 µM [inhibitor, single point] |
| Cc1cccn2c(Nc3ccccc3)c(-c3ccccn3)nc12 | inactive |
| Cc1ccc(-c2csc(/C(C#N)=C(\O)CN3CCN(C(=O)c4ccco4)CC3)n2)cc1 | inconclusive: 15.8 µM [inhibitor, partial curve] |
| O=C(Cn1cc(S(=O)(=O)Cc2ccccc2F)c2ccccc21)NCc1ccccc1 | inactive |
| CCOC(=O)C1=C(N)n2c(s/c(=C\c3ccco3)c2=O)=C(C(=O)OC(C)C)C1c1ccco1 (stereo not given) | inconclusive: 17.8 µM [inhibitor, partial curve] |
| CC(C)(C)c1ccc(C(=O)CC(=O)c2cc(Cl)ccc2O)cc1 | inactive |
| O=C(CSc1nnc(-c2ccc(Cl)cc2)n1Cc1ccco1)Nc1ccc2c(c1)OCCO2 | inconclusive: 10 µM [inhibitor, partial curve] |
| Cc1cccc(-c2cc3nc4c(c(N5CCOCC5)n3n2)CCCC4)c1 | inconclusive: 31.6 µM [inhibitor, single point] |
| O=C(Nc1ccc(C(=O)OCc2cc(=O)n3c4c(sc3n2)CCCC4)cc1)c1cccc(F)c1 | inconclusive: 39.8 µM [activator, single point] |
| Cc1ccc2c(=O)cc(C(=O)Nc3nc4ccc(Cl)cc4s3)oc2c1 | inconclusive: 2.82 µM [inhibitor, partial curve] |
| O=C(c1ccccc1)n1c(=S)nc2ccccn21 | inconclusive: 22.4 µM [inhibitor, partial curve] |
| Cc1nn(CC(=O)NC2C(=O)N3C(C(=O)O)=C(CSc4nnnn4C)CSC23)cc1Br (stereo not given) | inconclusive: 17.8 µM [inhibitor, partial curve] |
| O=C(COC(=O)c1cnccn1)c1ccc(Cl)c([N+](=O)[O-])c1 | inconclusive: 25.1 µM [inhibitor, single point] |
| Nc1nc(-c2ccc3c(c2)CCCC3)cs1 | inconclusive: 14.1 µM [inhibitor, partial curve, poor fit] |
| O=[N+]([O-])c1ccc(-c2cnc(NO)nc2)cc1 | inconclusive: 14.1 µM [inhibitor, partial curve] |
| COc1ccc(NC(=O)c2ccc(NC(=O)COC(=O)CC(NC(=O)c3ccccc3Cl)c3ccccc3)cc2)cc1 (stereo not given) | inconclusive: 3.98 µM [inhibitor, full curve] |
| O=C(/C=C/c1ccco1)Oc1cc(Br)cc(/C=N/NC(=O)c2ccccc2O)c1 | inconclusive: 11.2 µM [inhibitor, partial curve] |
| CCOc1ccccc1/C=C/C(=O)c1ccc(Cl)cc1 | inconclusive: 28.2 µM [inhibitor, single point] |
| CCOc1cc(/C=C2/N=C(C)C(C(=O)OC)=C2O)ccc1O | inconclusive: 22.4 µM [inhibitor, partial curve] |

| SMILES | Potency |
| --- | --- |
| CC(C)=CCCC1=CC[C@H](C(=O)O)[C@H](C(=O)O)C1 | inactive |
| O=C(O)/C(=C\c1ccc(Cl)c([N+](=O)[O-])c1)c1ccc(S(=O)(=O)N2CCCCC2)s1 | inconclusive: 17.8 µM [inhibitor, single point] |
| CCOC(=O)c1ccc(NC(=O)CCSCCc2ccccn2)cc1 | inconclusive: 11.2 µM [inhibitor, partial curve] |
| CC(C)Oc1ccc(CNS(=O)(=O)c2ccc(-c3cc(C(F)(F)F)on3)s2)cc1 | inactive |
| COc1cccc(-c2csc(N3CCN(C(=O)Nc4ccccc4Cl)CC3)n2)c1 | inconclusive: 15.8 µM [inhibitor, partial curve] |
| CSc1nc2ccc(NC(=O)C3=NNC(=O)CC3)cc2s1 | inconclusive: 3.98 µM [inhibitor, partial curve] |
| CCCNC(=O)CSc1cn(CC(=O)N2CCCCCC2)c2ccccc12 | inactive |
| Cc1ccc(N=Cc2c(C)[nH]n(-c3ccccc3)c2=O)nc1 | inconclusive: 35.5 µM [inhibitor, single point] |
| Cc1ccc2nc(NC(=O)C3CCN(S(=O)(=O)c4cc([N+](=O)[O-])ccc4Cl)CC3)sc2c1 | inconclusive: 8.91 µM [inhibitor, partial curve, poor fit] |
| CCN(CC)CCNC(=O)c1ccc2c(=O)n3nc(Nc4ccccc4)sc3nc2c1 | inconclusive: 39.8 µM [activator, single point] |
| Cc1ccc(Nc2ccc(S(=O)(=O)N3CCOCC3)cc2[N+](=O)[O-])c(C)c1 | inconclusive: 12.6 µM [inhibitor, partial curve, poor fit] |
| CCNc1ccc(C(=O)OCC(=O)N2c3ccccc3NC(=O)C2(C)C)cc1[N+](=O)[O-] | inconclusive: 28.2 µM [inhibitor, partial curve] |
| CC(/C=C/C=C/c1ccccc1)=N/NC(=O)c1ccc2c(c1)OCCO2 | inconclusive: 0.631 µM [inhibitor, full curve] |
| CCOC(=O)c1c(NC(=S)Nc2ccc(C)cc2)sc2c1CCC2 | inactive |
| Cc1ccc(S(=O)(=O)N2CCCCC2C(=O)N2CCN(Cc3ccccc3)CC2)cc1 (stereo not given) | inconclusive: 12.6 µM [inhibitor, partial curve] |
| Cc1ccc(CNC(=O)C2CCCN(Cc3nc(-c4cccc(C)c4)oc3C)C2)cc1 (stereo not given) | inconclusive: 39.8 µM [inhibitor, single point] |
| COc1cccc(NC(=O)C2CCN(c3nnc(-n4c(C)ccc4C)s3)CC2)c1 | inconclusive: 39.8 µM [inhibitor, single point] |
| O=C(Nc1cccc(-c2cnc3ccccc3n2)c1)c1ccco1 | inconclusive: 14.1 µM [inhibitor, partial curve] |
| Cc1ccc(Cl)cc1N1CCN(C(=O)COCc2cc(-c3ccc4c(c3)OCO4)on2)CC1 | inconclusive: 8.91 µM [inhibitor, partial curve, poor fit] |
| O=C(O)c1ccc(N=NNc2cccc([N+](=O)[O-])c2)cc1 | inconclusive: 14.1 µM [inhibitor, partial curve] |
| O=C(Cc1ccccc1)Nc1ccccc1C(=O)Nc1ccccc1 | inactive |
| COc1ccc(-c2nc3ccccc3o2)cc1NC(=O)c1ccc(-c2cccc(Cl)c2C)o1 | inconclusive: 25.1 µM [inhibitor, partial curve, poor fit] |

| SMILES | Potency |
| --- | --- |
| COc1ccccc1NC(=S)NNC(=O)c1ccncc1 | inactive |
| O=C1c2cccc([N+](=O)[O-])c2C(=O)N1CCO | inactive |
| Cc1cc2c(cc1Cl)N(C(=O)Nc1ccnc3ccccc13)CC2 | inconclusive: 12.6 µM [inhibitor, partial curve] |
| CCOc1cc(C2C(C(=O)OC)=C(C)NC3=C2C(=O)c2ccccc23)cc(Br)c1OCC (stereo not given) | inconclusive: 7.94 µM [inhibitor, full curve, poor fit] |
| CO[C@@H]1c2cc(F)ccc2/C(=C\CCOC(=O)C/C=C/c2ccccc2)[C@H]1C | inconclusive: 3.98 µM [inhibitor, full curve, poor fit] |
| CC(C)NC(=S)N=Nc1c(O)[nH]c2ccc(C(C)C)cc12 | inconclusive: 4.47 µM [inhibitor, partial curve] |
| CC(C)N1C(=O)CSC1c1ccc(Br)cc1 (stereo not given) | inactive |
| N#Cc1ccccc1NC(=O)CSC1=Nc2ccccc2C2CC=NN12 (stereo not given) | inconclusive: 20 µM [inhibitor, partial curve] |
| CCc1nc(SCC(=O)c2ccc3c(c2)OCCO3)c2ccccc2n1 | inconclusive: 20 µM [inhibitor, partial curve, poor fit] |
| O=C(CSc1cn(CCNC(=O)c2c(F)cccc2F)c2ccccc12)Nc1ccccc1F | inconclusive: 22.4 µM [inhibitor, partial curve, poor fit] |
| CCCC(=O)NCCc1c2n(c3ccc(OC)cc13)CCCc1ccccc1-2 | inactive |
| COc1cc(/C=N/NC(=O)c2cc(-c3ccc4c(c3)OCO4)n[nH]2)ccc1O | inconclusive: 0.224 µM [inhibitor, full curve, poor fit] |
| Fc1ccc(C2CC(c3ccco3)=Nc3ccccc3S2)cc1 (stereo not given) | inconclusive: 31.6 µM [inhibitor, single point] |
| O=C(CN(Cc1cccs1)C(=O)CNS(=O)(=O)c1ccccc1)NC1CCCC1 | inactive |
| Cc1ccc(C2NC(=O)c3c(sc4c3CCN(C)C4)N2)s1 (stereo not given) | active: 14.1 µM |
| O=C(Nc1ccc(-c2nnc3n2CCCCC3)cc1)c1cnccn1 | inactive |
| COc1ccc(NC2c3ccccc3C(=O)N2c2cccnc2)cc1 (stereo not given) | inconclusive: 3.16 µM [inhibitor, full curve] |
| Clc1ccccc1-c1nnc2sc(C3COc4ccccc4O3)nn12 (stereo not given) | inconclusive: 25.1 µM [inhibitor, partial curve] |
| CN(C)c1ccc(/C=N/n2ncc3ccccc32)cc1 | active: 3.98 µM |
| CN(C)c1ccc(C(=S)N2CCOCC2)cc1 | inactive |
| CCc1c(C)nc2nc(-c3ccccc3)nn2c1NCc1ccc(C)cc1 | inconclusive: 11.2 µM [inhibitor, partial curve, poor fit] |

Reference: PubChem BioAssay AID1460 (National Center for Advancing Translational Sciences (NCATS), 2008)
